In PubChem BioAssay AID504706 (National Center for Advancing Translational Sciences (NCATS), 2011):
In all, about 320,000 compounds went through this assay and about 200 (0.062%) were called active. This list was built around the results that the source calls inconclusive (neither active nor inactive); the mix of calls is not that of the screen. Calls come from the whole dose curve; as a rule, active = well fitted activation curve with a large enough effect; inconclusive = small, poorly fitted or top-dose-only effect; inactive = no such curve, though single readings can be large or run the other way. Potencies of inconclusive entries are left out as doubtful fits.

Experiment: qHTS assay for re-activators of p53 using a Luc reporter; note: nearly all actives have a fitted effect of over 45% in size
Conditions: H1299 p53-A138V BP100-luciferase reporter, luminescence, 24 h; series mostly up to 92.2 µM
Summary of the method: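 p53-null H1299 cells stably carrying temperature-sensitive p53-A138V and a BP100-luciferase reporter were pinned with compounds (4-point, 1:5 series) and held 24 hrs at 37 deg C. Luminescence was read 10 min after detection reagent.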
Potency is the fitted concentration of half-maximal effect; tags give direction and shape of the fitted curve.

Structure (SMILES)	Potency
CCCCOc1ncnc2c1[nH]c1ccc(OC)cc12	inconclusive [activator, partial curve, poor fit]
COc1ccc(-c2nc3n(c2C)Cc2ccccc2-3)cc1	inconclusive [activator, partial curve, poor fit]
CCCC(=O)NNc1cc(=O)c2c(=O)n(C)c(=O)n(C)c2[nH]1	inactive
CCOC(=O)N/N=C(\C)c1ccc(C)c([N+](=O)[O-])c1	inconclusive [activator, partial curve, poor fit]
N#Cc1ccc(NC(=O)c2cc(S(=O)(=O)N3CCOCC3)ccc2N2CCCC2)cc1	inactive
COc1cccc(/C=N/NC(=O)CNC(=O)C(c2ccccc2)c2ccccc2)c1O	inconclusive [activator, full curve]
CCOC(=O)c1cnc2scnn2c1=O	inconclusive [activator, single point]
CCOC(=O)CSc1nc(-c2ccc3c(c2)OCO3)ccc1C#N	inconclusive [activator, partial curve, poor fit]
CCOc1cc(CNCc2ccc(C(=O)O)cc2)ccc1OC	inactive
Cc1ccc(CN2CCNC(=O)C2CC(=O)NCc2cc(C)n(C)n2)cc1 (configuration not stated)	inactive
CCOc1ccccc1NC(=O)C(NCCc1ccc(OC)cc1)c1ccccc1 (configuration not stated)	inactive
Cc1nnc(N/N=C/c2ccc(Br)cc2)n1N	inactive
Cc1nn(Cc2ccccc2)c2c1C(c1ccco1)C(C#N)=C(N)O2 (configuration not stated)	inactive
O=C(Cc1c(F)cccc1Cl)NNC(=O)c1ccncc1	inconclusive [activator, single point]
CC(C(=O)NC(=O)NCc1ccccc1)N1C(=O)c2ccccc2C1=O (configuration not stated)	inactive
CCOc1ccc(OCc2ccc(C(=O)N/N=C(\C)c3ccccn3)cc2)cc1	inconclusive [activator, partial curve, poor fit]
Clc1cccc(Cl)c1/C=C/c1nc2ccccc2[nH]1	inconclusive [activator, partial curve, poor fit]
O=c1/c(=C/c2ccccn2)sc2nc3ccccc3n12	inconclusive [activator, partial curve, poor fit]
S=c1[nH]nc(-c2ccccc2)o1	inactive
CCCc1nc(SCC(=O)N2CCC(Cc3ccccc3)CC2)c2c(=O)n(C)c(=O)n(C)c2n1	inactive
CCCOC(=O)c1cc2ccccc2oc1=O	inconclusive [activator, single point]
Cc1cccc2sc(NNC(=O)c3ccc(S(=O)(=O)N4CCc5ccccc5C4)cc3)nc12	inconclusive [activator, full curve]
